PubChem BioAssay AID588342 (National Center for Advancing Translational Sciences (NCATS), 2011)
Hit rate of the full screen: of about 360,000 compounds, about 25,000 (6.9%) were called active. The inconclusive results got no clear call from the source; some entries with a clear call stand among them for comparison. Calls follow the shape of the dose curve; as a rule, active = well fitted inhibition curve with a large enough effect; inconclusive = small, poorly fitted or top-dose-only effect; inactive = flat fitted curve, though single readings scatter. Where the call is inconclusive, the potency comes from a doubtful curve fit.

Each molecule was assayed against Luciferin 4-monooxygenase (Photinus pyralis) (UniProt P08659) (assay: qHTS profiling assay for firefly luciferase inhibitor/activator using purifed enzyme and Km concentrations of substrates (counterscreen for miR-21 project)). Conditions: purified FLuc, luminescence inhibition; series mostly up to 57.5 µM; activity change, negative = inhibition: at the top concentration.
Chain of UniProt P08659 (P08659 whole entry, looked up): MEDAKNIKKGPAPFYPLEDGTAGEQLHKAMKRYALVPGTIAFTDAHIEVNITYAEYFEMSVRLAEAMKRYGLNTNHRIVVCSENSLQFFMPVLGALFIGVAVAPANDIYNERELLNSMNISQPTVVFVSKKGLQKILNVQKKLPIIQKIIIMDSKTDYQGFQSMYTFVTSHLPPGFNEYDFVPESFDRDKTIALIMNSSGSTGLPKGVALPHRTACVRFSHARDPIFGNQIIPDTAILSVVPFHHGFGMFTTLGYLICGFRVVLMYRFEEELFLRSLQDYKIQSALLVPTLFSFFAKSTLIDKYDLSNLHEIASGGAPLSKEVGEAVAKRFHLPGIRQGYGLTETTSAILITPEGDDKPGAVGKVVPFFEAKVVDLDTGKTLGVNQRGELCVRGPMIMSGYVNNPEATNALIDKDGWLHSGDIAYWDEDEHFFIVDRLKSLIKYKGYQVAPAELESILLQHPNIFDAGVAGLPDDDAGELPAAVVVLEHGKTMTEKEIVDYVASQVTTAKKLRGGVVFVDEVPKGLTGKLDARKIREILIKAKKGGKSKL
Summary of the method: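 Purified P. pyralis luciferase, 10 nM final, with Km-level 10 uM D-luciferin and 10 uM ATP in 50 mM Tris acetate pH 7.5, 10 mM Mg acetate, 0.01% Tween-20, 0.05% BSA; 6-point qHTS titration about 60 µM downward; luminescence read.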
Also: nearly all actives have a fitted effect of over 55% in size.
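For activity change, negative = inhibition in this document: plate controls were vehicle for no effect and reference inhibitor for full effect.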
Potency is read from the fitted curve at half-maximal effect; tags tell the direction and shape of the fitted curve.

Row | SMILES | Potency | activity change, negative = inhibition
1 | CCCCN1CN=C(Nc2nc3ccccc3o2)NC1 | inconclusive: 16.9 µM [inhibitor, partial curve] | 
2 | CCOC(=O)CCCN1CC(O)=C(c2nc3ccccc3s2)C1=N |  | inactive: 1.19%
3 | CC(C)c1ccc(N=C2N=C(N)c3ccccc32)cc1 | active: 0.478 µM | 
4 | COc1ccccc1/C=C1\SC(=S)N(C(C(=O)O)c2ccccc2)C1=O (centres undefined) | inconclusive: 26.9 µM [inhibitor, single point] | 
5 | O=C(NNc1ncnc2c1cnn2-c1ccccc1)c1cccs1 | inconclusive: 21.3 µM [inhibitor, single point] | 
6 | Cc1cccn2cc(-c3cc4ccccc4oc3=O)nc12 | active: 0.19 µM | 
7 | COc1ccc2oc(C(=O)OCC(=O)Nc3ccc(OC)c(S(N)(=O)=O)c3)c(C)c2c1 | inconclusive: 21.3 µM [inhibitor, single point] | 
8 | Cc1ccc(NC(=O)c2cccs2)cc1NC(=O)c1ccco1 | inconclusive: 16.9 µM [inhibitor, partial curve] | 
9 | CNc1ccc(/C=C/C(=O)c2ccc(C)cc2)cc1[N+](=O)[O-] | inconclusive: 3.01 µM [inhibitor, partial curve, poor fit] | 
10 | CSc1ncc(C(=O)NCCCc2ccccc2)c(C)n1 |  | inactive: -4.77%
11 | Cc1ccc(S(=O)(=O)NNc2ccccc2)cc1 | inconclusive: 26.9 µM [inhibitor, partial curve, poor fit] | 
12 | CCOC(=O)c1ccccc1NC(=O)c1ccc2nccnc2c1 |  | inactive: -2.97%
13 | CC1(C)c2ccccc2N2CC(=O)N(CC(N)=O)C21C (centres undefined) |  | inactive: 7.04%
14 | O=C(CN1C(=O)C2C3c4ccccc4C(c4ccccc43)C2C1=O)Nc1ccccc1C(=O)O (centres undefined) |  | inactive: -0.6%
15 | Cc1ccc(S(=O)(=O)N2CCOCC2)cc1NC(=O)COC(=O)CNC(=O)c1ccc(C(C)(C)C)cc1 | active: 0.953 µM | 
16 | CC(C)(C)c1ccc(C(=O)CC(Sc2ccc(Cl)cc2)C(=O)O)cc1 (centres undefined) | inconclusive: 21.3 µM [inhibitor, single point] | 
17 | Cc1nc2ccccc2c2oc(C(=O)N3CCC(C)CC3)cc12 | inconclusive: 26.9 µM [inhibitor, single point] | 
18 | Cc1ccccc1CSc1cn(CC(=O)N2CCCC2)c2ccccc12 | inconclusive: 30.1 µM [inhibitor, single point] | 
19 | O=C(CCc1nc2ccccc2c(=O)[nH]1)N1CCCc2ccccc21 | inconclusive: 21.3 µM [inhibitor, single point] | 
20 | CCc1ccc(N2CCn3c2nc2c3c(=O)n(CCc3ccccc3)c(=O)n2C)cc1 |  | inactive: -6.01%
21 | CCN(CC)S(=O)(=O)c1cc(NC(=O)c2cccc(N3C(=O)CCC3=O)c2)ccc1Cl | inconclusive: 21.3 µM [inhibitor, partial curve, poor fit] | 
22 | CCOCCc1nnc(NC(=O)C(=O)c2cc(C)n(-c3cccc(Cl)c3)c2C)s1 |  | inactive: 2.02%
23 | Cc1oc2c(c1C(=O)Nc1ccc(C(=O)O)cc1)CCCC2 | inconclusive: 23.9 µM [inhibitor, partial curve, poor fit] | 
24 | CCCCNC(=O)C(=O)NCC1CCCN1S(=O)(=O)c1cccs1 (centres undefined) |  | inactive: 1.31%
25 | Cc1ccc2nc(NC(=O)CSc3nccn3Cc3ccccc3)sc2c1 | inconclusive: 26.9 µM [inhibitor, partial curve] | 

Row | SMILES | Potency | activity change, negative = inhibition
26 | O=C1/C(=C/c2ccccc2)CCC1C1CCCC1 (centres undefined) | active: 1.2 µM | 
27 | O=C(NCC1CCCCC1)c1cccc(Br)c1 | inconclusive: 26.9 µM [inhibitor, partial curve, poor fit] | 
28 | CC(=O)c1ccc(NC(=O)/C=C/c2ccc(C)cc2)cc1 | inconclusive: 8.49 µM [inhibitor, partial curve] | 
29 | CC(=O)Nc1cccc(/C(C)=N/Nc2nc3ccccc3s2)c1 | active: 10.7 µM | 
30 | Clc1ccc(-c2nc3ccccn3c2Nc2ccc3c(c2)OCCO3)s1 | inconclusive: 12 µM [inhibitor, partial curve] | 
31 | C=CCSc1nnc2c(n1)OC(c1c(C)[nH]n(-c3ccccc3)c1=O)Nc1ccccc1-2 (centres undefined) | inconclusive: 37.9 µM [inhibitor, single point] | 
32 | S=C(NCCc1ccccc1)Nc1ccccc1Cl | inconclusive: 23.9 µM [inhibitor, single point] | 
33 | CCn1c(SC)nnc1-c1sc2cc(Cl)ccc2c1Cl | inconclusive: 21.3 µM [inhibitor, single point] | 
34 | O=C(COc1ccccc1F)Nc1ccc(Cl)c(-c2nc3ccccc3[nH]2)c1 |  | inactive: -13.3%
35 | O=C(NNS(=O)(=O)c1ccccc1)c1cc2cc3ccccc3nc2s1 | inconclusive: 26.9 µM [inhibitor, single point] | 
36 | CC1CCc2nc(NC(=O)c3ccc(N4C(=O)CCC4=O)cc3)sc2C1 (centres undefined) | active: 9.53 µM | 
37 | CC(C)(C)N1C(=O)c2ccc(C(=O)Nc3ccc(C(=O)O)cc3)cc2C1=O | active: 10.7 µM | 
38 | COc1ccc(-c2cc(C(=O)NCC(c3ccco3)N(C)C)c3ccccc3n2)cc1OC (centres undefined) | inconclusive: 26.9 µM [inhibitor, partial curve, poor fit] | 
39 | CCC1=Nc2ccccc2NC2=C1C(=O)CCC2 | inconclusive: 26.9 µM [inhibitor, partial curve] | 
40 | CCOc1ccc(NC(=O)Cn2cc(C(=O)c3ccc(CC)cc3)c(=O)c3ccc(C)nc32)cc1 |  | inactive: 0.29%
41 | O=C(N/N=C/c1cccc(OC(=O)c2cccc(Br)c2)c1)c1cccnc1 | inconclusive: 21.3 µM [inhibitor, single point] | 
42 | C=C(C)Cn1c(SCC(=O)Nc2cccc(Cl)c2)nc2sc3c(c2c1=O)CCCC3 |  | inactive: -7.12%
43 | CCc1ccc(C(=O)/C=C/c2cnn(C)c2C)s1 | active: 0.601 µM | 
44 | C=C(C)CN(CC)C(=O)CSc1nc2ncc(Cl)cc2[nH]1 | inconclusive: 21.3 µM [inhibitor, partial curve, poor fit] | 
45 | CCn1c(CNC(=O)C23CC4CC(CC(C4)C2)C3)nnc1SCC(=O)Nc1ccc(F)cc1 |  | inactive: 0.622%
46 | COc1cc(OC)c(OC)cc1/C=N/NC(=O)CCc1c(C)n[nH]c1C |  | inactive: 1.59%
47 | Cc1ccc(Nc2nc(N)nc(CSc3nnc(-c4ccncc4)o3)n2)cc1 | inconclusive: 9.53 µM [inhibitor, partial curve] | 
48 | CCOc1ccccc1OCCCOc1ccc([N+](=O)[O-])cc1Cl | active: 9.53 µM | 
49 | Clc1cccc2sc(N3CCN(c4ccccc4)CC3)nc12 | inconclusive: 12 µM [inhibitor, partial curve] | 
50 | Clc1ccc(OCc2nc(-c3ccncc3)no2)cc1 | inconclusive: 23.9 µM [inhibitor, partial curve] | 

Row | SMILES | Potency | activity change, negative = inhibition
51 | O=C(c1ccc(CNc2c(N3CCCC3)c(=O)c2=O)cc1)N1CC=C(c2ccccc2)CC1 | inconclusive: 37.9 µM [inhibitor, partial curve, poor fit] | 
52 | CCCC(=O)Nc1cccn(Cc2ccccc2Br)c1=O |  | inactive: 1.67%
53 | CCCn1c(N)c(N(CCOC)C(=O)CSc2ccccc2)c(=O)[nH]c1=O |  | inactive: -3.1%
54 | Cc1cc(NC(=O)c2ccccc2)n(C)n1 | inconclusive: 37.9 µM [inhibitor, partial curve, poor fit] | 
55 | COCCNC(=O)CSc1nnc(NC(=O)Nc2ccc(C)cc2)s1 | active: 12 µM | 
56 | COC(=O)c1sccc1S(=O)(=O)N(CC(=O)NCc1ccccc1)c1ccc(C)cc1 |  | inactive: 4.04%
57 | C=CCOc1ccc(/C=C/C(=O)OCC(=O)NCC2CCCO2)cc1 (centres undefined) | inconclusive: 37.9 µM [inhibitor, partial curve, poor fit] | 
58 | COC(=O)c1ccc(CSc2nnc(Nc3ccc(OC)cc3)s2)o1 | inconclusive: 23.9 µM [inhibitor, single point] | 
59 | CCc1ccc2nc(/N=C(\N)NC(=O)c3ccccc3)nc(C)c2c1 | active: 6.01 µM | 
60 | CCOC(=O)[C@H]1[C@H]2COc3ccc(Br)cc3[C@@H]2N2C(=O)c3ccc(Cl)cc3NC(=O)[C@@]12C |  | inactive: -2.08%
61 | CCN=C1S/C(=C\c2sccc2C)C(=O)N1CC | active: 12 µM | 
62 | Cc1ccccc1-c1cc(C(=O)N2CCCC2)c2ccccc2n1 |  | inactive: 5.85%
63 | CC(=O)Cc1nsc(NC(=O)c2cccs2)n1 | inconclusive: 26.9 µM [inhibitor, partial curve] | 
64 | CCn1c(COc2ccccc2)nc2ccccc21 | inconclusive: 19 µM [inhibitor, single point] | 
65 | O=C(NCc1ccccc1Cl)c1ccc(-c2ccccc2)cc1 | inconclusive: 4.26 µM [inhibitor, partial curve, poor fit] | 
66 | CCc1nnc(NC(=O)CSc2nnc(CNC(=O)c3cc(OC)c(OC)c(OC)c3)o2)s1 | inconclusive: 37.9 µM [inhibitor, partial curve, poor fit] | 
67 | CCCc1ccc2oc(C(=O)N3CCC(COC)C3)c(C)c2c1 (centres undefined) | active: 12 µM | 
68 | Cc1ccc(NC(=O)c2nsc(Cl)c2Cl)cc1 | active: 1.69 µM | 
69 | O=C1S/C(=C\C=C\c2ccco2)C(=O)N1c1ccc(O)cc1 | active: 15.1 µM | 
70 | CSC1=NSC2=NC(=O)/C(=C/c3coc4ccc(O)cc4c3=O)C(=N)N12 | inconclusive: 37.9 µM [inhibitor, partial curve, poor fit] | 
71 | N#C/C(=N\Nc1ccc(Cl)c(Cl)c1)C(=O)C1CC1 | active: 26.9 µM | 
72 | N/C(=N\OC(=O)C12CC3CC(CC(C3)C1)C2)c1ccncc1 | active: 19 µM | 
73 | CCOC(=O)c1cccc(NC(=O)c2ccc3snnc3c2)c1 | inconclusive: 26.9 µM [inhibitor, partial curve, poor fit] | 
74 | O=C(N/N=C/c1cc(Cl)cc([N+](=O)[O-])c1O)C1CC1 | inconclusive: 37.9 µM [inhibitor, single point] | 
